B1: LINE1-mini (parent)
chain: GGCAGAGCUCAACACAGCGUGGCAAAGUGGCUGUGGCUAGACUGCC

This is an account of results in the RNAGym collection of RNA variant scans (doi:10.7554/elife.90254).

The source gives no read counts; variants with many changes may rest on few reads.

The variants in this data set derive from B1. Put plainly: self-cleavage, relative activity (ratio to wild type); higher = more cleavage; in vitro, sequencing; the parent is a self-cleaving ribozyme.
As to G22C C23G U28G, the self-cleavage turned out to be 0.42.
Consider G22U G33A A39G, for which the self-cleavage is 0.19.
As to G21U U32C C45U, the self-cleavage was 0.03.
Take G21U A41U C45G: the self-cleavage amounted to 0.08.
Take G22C C31A U32G C45A C46U: the self-cleavage is 0.01.
Consider G22C A26G U43C, for which the self-cleavage came out at 0.29.
For the variant G22A G29U C46A, the self-cleavage is 0.33.
In the case of G22C C31U U34C C46U, the self-cleavage was 0.03.
For G21U U38G C46A, the self-cleavage turned out to be 0.03.
As for G22A G33U G40C A41U, the self-cleavage was 0.12.
G22A A26G U28A C42A: the self-cleavage worked out at 0.08.
As to G21U C37U U38G, the self-cleavage was 0.02.
Then G21U U28A G36U C46G, with 0.03; and G22U C23G U38G A41U, with 0.02; and G22U G33U A41U C42U U43A, with 0.02.
As to G22C C31A G35U, the self-cleavage was determined as 0.04.
As to G22C C31A G35A, the self-cleavage was found to be 0.08.
Turning to G22U G27U G36C G44U, the self-cleavage amounted to 0.62.
For G22C C23A G35U A39U C46A, the self-cleavage amounted to 0.07.
On to G22A C23U A26U G40U, for which the self-cleavage was found to be 0.05.
Consider G22A G33C G44A C45G, for which the self-cleavage is 0.11.
G21U G36C C45U: the self-cleavage turned out to be 0.07.
Then G22C A39U U43C G44C, with 0.03.
As for G22A A39G A41U U43A, the self-cleavage amounted to 0.04.
G21U A41U U43C C46A: the self-cleavage is 0.06.
Regarding G21U G30U G35C C45G, the self-cleavage was 0.01.
Turning to G22U C23G C37G, the self-cleavage was 0.04.
Then G22A G36U C37U, with 0.
As for G21U U34A C37A, the self-cleavage was found to be 0.02.
Take G22U C23U G29A: the self-cleavage is 2.83.
Regarding G21U G29A C37U, the self-cleavage is 0.01.
G22A A24G A25U G30U: the self-cleavage is 0.42.
In the case of G21U U28G G36A, the self-cleavage was determined as 0.06.
In the case of G22U C23A A25C, the self-cleavage is 0.52.
G22C G29A U34A C37A: the self-cleavage was 0.02.
As to G22A G30U G44A, the self-cleavage amounted to 0.77.
As to G22C A25C U28G G44U C45G, the self-cleavage is 0.13.
As for G22C U28A C45G, the self-cleavage came to 0.09.
With G22C A24U G29A, the self-cleavage worked out at 2.37.
G21U G35A G44U: the self-cleavage came to 0.26.
Take G22U G33A U43A G44A: the self-cleavage amounted to 0.04.
Consider G22A A26U G40U, for which the self-cleavage worked out at 0.13.
Turning to G21U U34A C45A, the self-cleavage came out at 0.05.
As to G22C A24C U34G, the self-cleavage was 0.22.
Regarding G21U G30U G33U, the self-cleavage is 0.04.
For the variant G22C G33C C37U, the self-cleavage came out at 0.04.
Under G22A G27U A39U stands 0.73.
On to G22U C23A G33C C37A U43G C46G, for which the self-cleavage was found to be 0.02.
G22C A25U C31A: the self-cleavage amounted to 0.16.
For G21U G33C C46A, the self-cleavage amounted to 0.06.
As to G22C U38A C46A, the self-cleavage amounted to 0.25.
As for G22C A24U C46A, the self-cleavage was 0.13.
As to G22C G27U U34A, the self-cleavage worked out at 0.21.
In the case of G21U A26U G36C U43C, the self-cleavage was determined as 0.06.
For G22C C23A U34G, the self-cleavage was found to be 0.41.
For G22A C37A C46U, the self-cleavage is 0.05.
For G21U G36U U43C, the self-cleavage was found to be 0.03.
Under G22A U28C G35U stands 0.08; under G22A A25C G29U U34G, 0.12; under G22U C42U C45U, 0.6.
Under G22A G29U U38A stands 0.06; under G21U C23U G40U, 0.14.
As for G22U A26U G35U C42A, the self-cleavage was determined as 0.04.
For the variant G21U G30U G36A A39G, the self-cleavage was determined as 0.04.
As to G22A C37U G40U, the self-cleavage worked out at 0.11.
For the variant G22U A26C G35U C45A, the self-cleavage was found to be 0.15.
In the case of G22C G29U U34C, the self-cleavage was 0.29.
Then G21U G22A U34C, with 0.29.
As for G21U C23G A25U, the self-cleavage is 1.43.
With G22A A41U C42G, the self-cleavage turned out to be 0.08.
Turning to G22A A41U C42A, the self-cleavage came out at 0.08.
Consider G22A C31A G40U, for which the self-cleavage turned out to be 0.04.
Turning to G21U A26G G40U, the self-cleavage came to 0.09.
Consider G21U G22C C46U, for which the self-cleavage came out at 0.59.
Then G22C G27C C45U, with 0.09; and G22C G36A G40A, with 0.13.
For the variant G21U U28G G29U C31U, the self-cleavage turned out to be 0.05.
As for G22C G27U A39G C42U, the self-cleavage turned out to be 0.02.
For the variant G22U A25U G29A C37U, the self-cleavage amounted to 0.04.
Turning to G21U G27C U28C C42A, the self-cleavage was found to be 0.03.
Take G22C A39C U43C: the self-cleavage came out at 0.02.
Then G22C C37A C42A, with 0.04; and G21U C23A G29U, with 0.28.
As to G22A A24G U43C, the self-cleavage is 0.12.
Take G21U U34G C46A: the self-cleavage was 0.36.
Under G22U A25U U43A stands 0.11; under G21U U28G U32G, 0.18.
In the case of G22U C37G A39C, the self-cleavage was 0.04.
G21U G33C C42U: the self-cleavage amounted to 0.04.
Consider G22U A24G G29A G44C, for which the self-cleavage is 0.67.
Take G22A A24U U34G: the self-cleavage turned out to be 0.72.
Take G22C A24U A39U C42U: the self-cleavage stood at 0.33.
As for G22A A26C G27A U32C, the self-cleavage is 0.68.
Turning to G22A U32A A39G, the self-cleavage is 0.02.
For the variant G22C C23A U28C G36A U38A, the self-cleavage is 0.01.
As for G22C U32C C45U, the self-cleavage worked out at 0.05.
Take G22C A26U G30C G36U C42A C46G: the self-cleavage worked out at 0.06.
For the variant G22C C23A G29A U34C G36A, the self-cleavage stood at 0.12.
For G22U A24U U38G A41C, the self-cleavage worked out at 0.04.
G22C G29U G36U: the self-cleavage amounted to 0.07.
As to G22U G30C A39U, the self-cleavage turned out to be 0.7.
Under G22U G30C U32C G35C stands 0.15.
As for G22A G35U C42U, the self-cleavage was 0.11.
Then G21U G40U C42G, with 0.28; and G22A G27A G44C C45G, with 0.04; and G22U A26U G29A A41C, with 0.02.
In the case of G21U U34C C42A, the self-cleavage was found to be 0.22.
Take G22U A24U A39U: the self-cleavage was determined as 0.25.
On to G22C A41C C46A, for which the self-cleavage came out at 0.04.
Take G22C G30A G33C: the self-cleavage was 0.09.
Under G22U C23A G40A U43G stands 0.04.
Take G22A G36U G40C: the self-cleavage was 0.08.
Consider G22U G30A A41U, for which the self-cleavage was determined as 1.24.
In the case of G21U G22A G36C A39C, the self-cleavage came out at 0.02.
As to G21U G35U G40A, the self-cleavage came out at 0.07.
Under G21U U32G U34G stands 0.02; under G21U U32G U34C, 0.29.
With G21U G40C G44U, the self-cleavage was 0.02.
As to G22A G33U G36C U43G, the self-cleavage worked out at 0.
Turning to G21U C31U U43C, the self-cleavage is 0.03.
Consider G21U G30U G40U, for which the self-cleavage came to 0.11.
For G22A G30A U43G, the self-cleavage was found to be 1.79.
In the case of G21U C31A U32C C42A, the self-cleavage was determined as 0.08.
Take G21U G36U C37A: the self-cleavage stood at 0.
As to G21U U28C U34C A39G U43G, the self-cleavage worked out at 0.
In the case of G22C A24G U32G C45A, the self-cleavage is 0.07.
On to G22U A24G G40C, for which the self-cleavage was found to be 0.05.
Regarding G21U G33C G36U, the self-cleavage amounted to 0.04.
On to G22A C23A G30A G40C, for which the self-cleavage was found to be 0.26.
For G22C U34A A41C, the self-cleavage amounted to 0.04.
On to G22A A25G A39G, for which the self-cleavage worked out at 0.
With G22A U32C A39C G44U, the self-cleavage worked out at 0.08.
As to G22A U28A G36U, the self-cleavage amounted to 0.04.
Take G22C C31A G40U: the self-cleavage turned out to be 0.08.
As to G22C A24U A26G G40U, the self-cleavage is 0.12.
On to G22C A25U G33A U34C G44U, for which the self-cleavage was determined as 0.03.
Take G21U C31A G33U A41U: the self-cleavage turned out to be 0.08.
As to G22U A26C C31U G35U, the self-cleavage turned out to be 0.03.
Regarding G22A C23U G29C, the self-cleavage was found to be 0.63.
Under G21U G36C U38G stands 0.06; under G21U U32C A41U C45A, 0.03; under G21U C23G A39U C42U, 0.1.
With G21U G33C U34A G35A, the self-cleavage was determined as 0.05.
As to G22C C31U G33U, the self-cleavage amounted to 0.04.
Then G22U A24U G29C C31U, with 0.19; and G22C A26U C31A G44A, with 0.06; and G22C A26U G30A G40A, with 0.08.
On to G21U U34C U38A, for which the self-cleavage is 0.22.
Regarding G22C C37U U38G A41G, the self-cleavage came out at 0.01.
Turning to G22U C31U G35A, the self-cleavage was determined as 0.03.
Under G21U U32G G35A A41G stands 0.12.
Consider G22C C23G A24U C31A, for which the self-cleavage turned out to be 0.96.
Regarding G22C C37A G40A G44U, the self-cleavage came to 0.06.
Regarding G21U G27U G33A, the self-cleavage was determined as 0.37.
For G21U G29U A39G A41U, the self-cleavage came to 0.08.
With G22C C31A A41U, the self-cleavage amounted to 0.07.
In the case of G22U G29A C37U, the self-cleavage is 0.
On to G21U C23G U38G U43G, for which the self-cleavage was found to be 0.
On to G22U G33A U38C C46U, for which the self-cleavage was 0.17.
For G21U C23G A26C, the self-cleavage was 0.12.
On to G22A A41G C45U, for which the self-cleavage stood at 0.25.
G22A U32C A39G: the self-cleavage amounted to 0.05.
With G22U C23A A24C A25U G44C, the self-cleavage stood at 0.42.
For the variant G21U G29U C31U G33C G36U G44C, the self-cleavage was determined as 0.03.
With G21U U32A G33A C45U, the self-cleavage stood at 0.04.
Under G22A G27C G33C U34C A41G stands 0.04; under G22U C23A C37A, 0.17.
